# Reference: PMC5892938
# This is one part of the list. At the low end of the ranking the order means little.
# Target: GST-SBP-SLBP (stem-loop binding protein) (UniProt Q14493)
# Test: targeted RNA Bind-n-Seq;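 further: DESeq read counts versus GST-SBP nonspecific binding control pulldown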
# Conditions: RBNS binding buffer: 25 mM Tris pH 7.5, 150 mM KCl, 3 mM MgCl2, 0.1% Tween, 0.5 mg/mL BSA, 1 mM DTT; 27 nM protein, 750 pM RNA pool; temperature not stated; high values mean tight binding
row,Sequence,binding signal (log2 fold change)
1,GGUCACGUCUCAAUCAACUCUUCCUCAGGAGUUUACUCCUGCAAACUCAACAGCUCGCAGUCAAG,-0.0934
2,GGUCACGUCUCAAUCAACUCAGUCUCAGGAGUUUACUCCUGUUUAUUCAACAGCUCGCAGUCAAG,0.0622
3,GGUCACGUCUCAAUCAACUCCCAAGAGGGGGGGAAAACCCCUUUACCCUCAAUUUCAACAGCUCGCAGUCAAG,-0.0978
4,GGUCACGUCUCAAUCAACUCCUUAGAGGGGGGGAAAACCCCUUUACCCUCCAAUUCAACAGCUCGCAGUCAAG,-0.0478
5,GGUCACGUCUCAAUCAACUCAUAAGAGGGGGGGAAAACCCCUUUACCCUCAAUAUCAACAGCUCGCAGUCAAG,-0.44
6,GGUCACGUCUCAAUCAACUCAACUUCCAGGGAAAACCCUGGCAUACUCAACAGCUCGCAGUCAAG,0.287
7,GGUCACGUCUCAAUCAACUCAUUUUCAGGAGUUUUCUCCUGUAUUUUCAACAGCUCGCAGUCAAG,-0.262
8,GGUCACGUCUCAAUCAACUCUAUUUCAGGAGUUUCCUCCUGUUAAUUCAACAGCUCGCAGUCAAG,-0.0965
9,GGUCACGUCUCAAUCAACUCAAACGAGGGGGGGAAAACCCCUUUACCCUCAUAAUCAACAGCUCGCAGUCAAG,0.0835
10,GGUCACGUCUCAAUCAACUCAUAAGAGGGGGGGAAAACCCCUUUGCCCUCAUAAUCAACAGCUCGCAGUCAAG,-0.02
11,GGUCACGUCUCAAUCAACUCUUCGGCAGGAGUUUACUCCUGGAAUCUCAACAGCUCGCAGUCAAG,0.0554
12,GGUCACGUCUCAAUCAACUCAUUUCCAGGAGUUUUCUCCUGUAUUUUCAACAGCUCGCAGUCAAG,0.0649
13,GGUCACGUCUCAAUCAACUCAUCCUCAGGAGUUUUCUCCUGUUAUCUCAACAGCUCGCAGUCAAG,0.128
14,GGUCACGUCUCAAUCAACUCAUUUCCCAGGGAAAGCCCUGGUUUACUCAACAGCUCGCAGUCAAG,-0.0348
15,GGUCACGUCUCAAUCAACUCUCAAGAGGGGGGGAAAACCCCUUUACCCUCACUUUCAACAGCUCGCAGUCAAG,-0.131
16,GGUCACGUCUCAAUCAACUCAUUCCCCAGGGAAACCCCUGGUAUUCUCAACAGCUCGCAGUCAAG,-0.0589
17,GGUCACGUCUCAAUCAACUCUAUCGCAGGAGUUUCCUCCUGGUAAUUCAACAGCUCGCAGUCAAG,-0.00293
18,GGUCACGUCUCAAUCAACUCAUCCUCCAGGGAAAUCCCUGGCAUUUUCAACAGCUCGCAGUCAAG,0.00639
19,GGUCACGUCUCAAUCAACUCUUCCUCAGGAGUUUCCUCCUGUAUAUUCAACAGCUCGCAGUCAAG,0.126
20,GGUCACGUCUCAAUCAACUCAUCCGCAGGAGUUUUCUCCUGGAAAUUCAACAGCUCGCAGUCAAG,-0.0219
21,GGUCACGUCUCAAUCAACUCUUCUCCCAGGGAAACCCCUGGCAUAUUCAACAGCUCGCAGUCAAG,-0.126
22,GGUCACGUCUCAAUCAACUCUAUCUCCAGGGAAACCCCUGGUUUUCUCAACAGCUCGCAGUCAAG,0.0543
23,GGUCACGUCUCAAUCAACUCUUUCUCCAGGGAAACCCCUGGCUAUCUCAACAGCUCGCAGUCAAG,0.0669
24,GGUCACGUCUCAAUCAACUCUUUCCCCAGGGAAAACCCUGGCAAUGUCAACAGCUCGCAGUCAAG,0.222

row,Sequence,binding signal (log2 fold change)
1,GGUCACGUCUCAAUCAACUCUCACGAGGGGGGGAAAACCCCUUUACCCUCUAACUCAACAGCUCGCAGUCAAG,-0.274
2,GGUCACGUCUCAAUCAACUCAAAGGAGGGGGGGAAAACCCCUUUACCCUCAUCAUCAACAGCUCGCAGUCAAG,0.00381
3,GGUCACGUCUCAAUCAACUCUAUCUCCAGGGAAAGCCCUGGCAUACUCAACAGCUCGCAGUCAAG,0.107
4,GGUCACGUCUCAAUCAACUCAUCCUCCAGGGAAAUCCCUGGCUAUCUCAACAGCUCGCAGUCAAG,0.258
5,GGUCACGUCUCAAUCAACUCAAUUCCCAGGGAAAACCCUGGCAUUUUCAACAGCUCGCAGUCAAG,0.167
6,GGUCACGUCUCAAUCAACUCUAUUUCCAGGGAAAUCCCUGGCUAUUUCAACAGCUCGCAGUCAAG,0.25
7,GGUCACGUCUCAAUCAACUCUAUCUCAGGAGUUUCCUCCUGCUUUCUCAACAGCUCGCAGUCAAG,0.25
8,GGUCACGUCUCAAUCAACUCAACUUCAGGAGUUUACUCCUGCAUUCUCAACAGCUCGCAGUCAAG,0.173
9,GGUCACGUCUCAAUCAACUCUUUCGCAGGAGUUUACUCCUGGUAUUUCAACAGCUCGCAGUCAAG,-0.142
10,GGUCACGUCUCAAUCAACUCAUUUCCCAGGGAAACCCCUGGCUAUUUCAACAGCUCGCAGUCAAG,0.109
11,GGUCACGUCUCAAUCAACUCAAUCCCAGGAGUUUUCUCCUGUUAUCUCAACAGCUCGCAGUCAAG,0.241
12,GGUCACGUCUCAAUCAACUCAUCCCCCAGGGAAACCCCUGGCAUACUCAACAGCUCGCAGUCAAG,-0.0372
13,GGUCACGUCUCAAUCAACUCAUCGGCAGGAGUUUACUCCUGGAAUCUCAACAGCUCGCAGUCAAG,-0.0689
14,GGUCACGUCUCAAUCAACUCUAUCUCAGGAGUUUCCUCCUGCAUUCUCAACAGCUCGCAGUCAAG,0.0395
15,GGUCACGUCUCAAUCAACUCAGUCUCAGGAGUUUUCUCCUGCAUUCUCAACAGCUCGCAGUCAAG,0.215
16,GGUCACGUCUCAAUCAACUCAUUUUCCAGGGAAACCCCUGGUAAUUUCAACAGCUCGCAGUCAAG,-0.0469
17,GGUCACGUCUCAAUCAACUCUUUCUCCAGGGAAAUCCCUGGCUUUCUCAACAGCUCGCAGUCAAG,0.0186
18,GGUCACGUCUCAAUCAACUCUAAAGAGGGGGGGAAAACCCCUUUGCCCUCAUACUCAACAGCUCGCAGUCAAG,0.22
19,GGUCACGUCUCAAUCAACUCUUCGCCAGGAGUUUCCUCCUGUAUACUCAACAGCUCGCAGUCAAG,-0.0422
20,GGUCACGUCUCAAUCAACUCUUCCCCAGGAGUUUACUCCUGUAAUCUCAACAGCUCGCAGUCAAG,0.0304
21,GGUCACGUCUCAAUCAACUCAAUCUCAGGAGUUUACUCCUGCAAAUUCAACAGCUCGCAGUCAAG,0.045
22,GGUCACGUCUCAAUCAACUCUUUCUCCAGGGAAAGCCCUGGUUAUCUCAACAGCUCGCAGUCAAG,0.274
23,GGUCACGUCUCAAUCAACUCAUCUCCAGGAGUUUUCUCCUGCUAUCUCAACAGCUCGCAGUCAAG,0.106
